In all, about 33,000 sequences were measured (“E-score (-0.5 to 0.5)”: median about -0.054, highest 2% from about 0.35 on). The list shows a part of the results.
Target: T1, Stb5 (UniProt P38699)
T1 sequence: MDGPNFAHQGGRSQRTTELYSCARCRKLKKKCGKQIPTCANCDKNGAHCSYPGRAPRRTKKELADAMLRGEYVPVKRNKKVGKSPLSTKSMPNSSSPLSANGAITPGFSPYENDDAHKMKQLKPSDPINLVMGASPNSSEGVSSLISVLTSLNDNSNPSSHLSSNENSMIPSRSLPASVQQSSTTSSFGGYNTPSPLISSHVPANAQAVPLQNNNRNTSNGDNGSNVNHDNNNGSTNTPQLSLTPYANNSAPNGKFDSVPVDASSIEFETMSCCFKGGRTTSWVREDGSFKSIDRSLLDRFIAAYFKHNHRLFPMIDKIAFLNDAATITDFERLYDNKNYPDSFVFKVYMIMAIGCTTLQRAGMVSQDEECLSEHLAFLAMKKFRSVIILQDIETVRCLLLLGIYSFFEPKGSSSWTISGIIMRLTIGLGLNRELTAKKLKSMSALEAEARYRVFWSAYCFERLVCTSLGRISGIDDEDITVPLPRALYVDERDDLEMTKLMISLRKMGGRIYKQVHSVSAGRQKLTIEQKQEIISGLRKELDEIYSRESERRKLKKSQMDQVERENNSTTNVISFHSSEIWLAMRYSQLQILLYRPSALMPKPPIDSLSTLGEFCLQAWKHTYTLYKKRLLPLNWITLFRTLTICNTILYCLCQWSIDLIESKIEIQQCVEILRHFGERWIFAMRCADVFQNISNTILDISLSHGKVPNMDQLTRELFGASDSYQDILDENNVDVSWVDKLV
Test: PBM E-score (8-mer binding enrichment) (E-score (-0.5 to 0.5)); higher = stronger / more preferred TF binding; most listed sequences are background and not binding sites
Settings: protein concentration: 200 nM; construct: GST-full length
Procedure, shortened: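 Detection of bound protein used fluorescent anti-GST, with scans normalised by masliner. The proteins were GST-tagged yeast transcription factors applied at about 100-200 nM to universal all-10-mer Agilent arrays made double-stranded by primer extension. Each ungapped eight-base word, pooled with its reverse complement, was scored with an E-score from the Universal PBM Analysis Suite.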

Sequence | PBM E-score
ATCCGCTA | 0.155
ACACATGT | -0.0468
GCGTGTCC | -0.0227
CCTGATTC | -0.194
ATTAAGAC | -0.0328
ATATCACG | -0.0706
CGCATAAA | -0.127
GCACTCAA | -0.0587
TGTACACA | -0.225
ACCCCGGA | 0.308
GCCCACCA | -0.12
AACTTGTA | -0.0937
CCCAAGCG | -0.0803
CTTTGGTA | -0.011
ATTAACAC | -0.0259
AGGAACGG | 0.197
CTTAAAGA | -0.00272
CATAACAG | 0.0446
TAGACGAA | -0.16
AGAGTGCA | -0.133
GAGTGTCA | -0.216
AAGAACCC | 0.043
ACCATAAA | -0.0332
CCCAATAC | -0.139
ATTTACCC | 0.0882

Sequence | PBM E-score
GGAGTGTA | 0.108
AATTGTAA | -0.0199
ACAGGGAA | -0.147
AGCCCAGC | -0.0545
TAGCCAGA | -0.2
AGCTAATC | -0.0939
GTCCACGA | -0.134
AGAGTCTG | -0.282
ACGCTCGC | -0.078
GGAGCTAC | 0.172
CATATGAA | -0.00067
GAGATCTA | -0.158
GTACTCGA | -0.163
TGTTACAA | -0.106
CGGAGAAC | 0.0279
CAGGGAAG | -0.227
TACGCTCA | -0.279
GTGATAAA | 0.184
GCGTCCAA | -0.222
CTTCAATA | -0.149
TGGCGAAA | -0.0111
TAGCACAA | -0.151
GTACAGTA | -0.0118
AACAGTGA | -0.0602
CAGAAAGG | -0.0805

Sequence | PBM E-score
TTACGCAA | -0.137
AGTCACAG | -0.269
CCCCCGCA | 0.154
AACGCATA | -0.0153
CTGTGTTC | -0.133
TCCGAAGA | 0.3
CAATACCC | 0.242
ACCGACGG | 0.42
CGCAATAG | -0.15
CGATGGCA | 0.0451
CAGGGTCC | -0.152
ACGATGTA | -0.168
CAGATTAC | 0.0255
CGATGATA | 0.151
CATAGCTC | -0.0792
CGAGCGTA | 0.115
ACAGTGGA | -0.0661
AAAGATCG | -0.0774
CGTCTCAG | -0.114
ACCTCTCC | -0.0916
CTTAATAC | -0.0621
AACTCGAG | -0.178
GAAGGGAA | -0.118
GAATTTGA | 0.125
TAAGACTA | -0.238

Sequence | PBM E-score
GAGAATCC | 0.0729
CAAACTTA | -0.0322
ATTTTGGG | -0.156
CACATACA | -0.251
GCTCTGCA | -0.326
AAGCTTAA | -0.0031
CACCACGG | 0.124
AACTACCA | -0.153
GGTCGTCA | -0.0466
CTAAACCC | 0.233
CCAGTTTC | -0.207
TTCTCAAA | -0.128
CACCCAGG | -0.0359
TCCAAGAA | -0.203
AAGCTAAG | -0.205
CCACGGAG | 0.289
AGCACTTA | -0.0929
ATTAGGTC | 0.0516
ACCGCCGG | 0.414
GAATTAAA | -0.0528
TAGTACTA | -0.346
GTTGTTCA | -0.0698
CTACGTTA | 0.0142
GGTCTCAA | 0.18
ATTATTAG | -0.0442

Sequence | PBM E-score
CCCAACAA | 0.0103
AGCATGCT | -0.405
CGACACAG | 0.247
CCTAAACC | 0.138
CTAGATCC | 0.141
ACGGTGAA | 0.316
GTCGTCAC | -0.0104
GCCTGTGA | -0.117
ATGTTGCC | 0.153
GCGTTCAC | 0.0264
CAAGCCTG | -0.314
ACTACAGT | -0.24
TCATGTAA | 0.0075
AAATGCGT | 0.08
AGCGGCCC | 0.255
CATAGACA | -0.112
ATTTGTAC | -0.154
GAGTCTGA | -0.308
CATTCCTC | -0.0908
GACCCTTA | -0.174
GAAACCTA | -0.123
AAGATTAA | -0.0554
AAGCTACA | -0.214
ATGCTTAA | 0.0568
CATCACGC | 0.0618

Sequence | PBM E-score
CTGGTATA | -0.0956
TATTGCGA | 0.112
ACCGAGTA | -0.00951
GGCTTATA | 0.192
TCCCGCCA | 0.205
CTATTTAC | 0.109
ATTGGGCG | 0.0233
AATCACGC | -0.1
GAGCTGAA | -0.27
ATATATTG | 0.196
CAATCCGC | 0.117
CGAGAGAC | -0.0954
CGTCTCAC | -0.119
AATGCAAG | -0.116
CGTAGGTC | 0.108
AACATCAA | 0.0457
GCGAGTGA | -0.143
TGGTAAAA | -0.0266
ACTAAGAT | 0.0515
ACTTCTCC | 0.103
ATAGAGGG | -0.129
ATACCTAT | -0.134
GTTTTACA | 0.1
CTCTATTC | -0.0624
GTAATGAC | 0.00393

Sequence | PBM E-score
ATCCACGC | -0.125
CACTGCGA | -0.101
ACGTGCTA | -0.246
CTTCTCAA | -0.188
ACCTTTAT | -0.0784
GTAAGAGA | -0.0146
CTGGGTTC | -0.135
AGGAGACA | -0.131
GCGTACCC | -0.0483
CAATTCGC | 0.0656
GGCGGAGA | 0.388
GCATCGGC | 0.224
GTAGGTTA | 0.0345
GTCTAAGA | -0.0395
CCGAAGAC | 0.135
CGCGTTGA | -0.0617
ATCCAGGC | -0.244
CTCTAGCC | -0.102
GGAAGCCC | 0.107
CGTAGAGA | -0.241
CTCGCCGC | 0.0978
AACCCGAG | 0.182
GGTCCCTA | 0.011
CGATATAC | 0.166
CTGTCGTA | -0.176

Sequence | PBM E-score
GCCCTCAA | -0.177
ACCGGAGA | 0.344
GACGCGTC | -0.0037
CGGCTAAA | 0.0911
AACATGCG | -0.126
CCTAACGA | -0.19
AAAAAGAT | -0.291
CTCCCCGC | 0.248
AGGAAGTA | 0.0105
AGGATGCG | -0.211
ACTAGAAG | -0.0485
GTTCCGTA | 0.11
GTATACCA | -0.00886
AAACACTA | -0.139
AAAAGGGA | -0.201
GAACCAGA | -0.309
GGCCCCGA | 0.23
CAAGTTCC | 0.0355
AGATAGAG | -0.0692
ACTGTAAC | 0.0101
CAGTTGAA | -0.205
ACGCATCA | -0.074
AAGTAGCG | 0.0894
CGGTCAAG | 0.0608
ATGGCACC | 0.145

Sequence | PBM E-score
AGTTTTAC | 0.0395
CGCGTTGC | 0.149
CTTGACCA | -0.161
CGGGTGCC | 0.0716
GGGGGTCA | -0.125
TGTTTGAA | -0.0645
AGAATTCG | -0.146
ACGTGGTG | 0.0902
AACAGAGG | -0.165
ACTCACAC | -0.18
GTCCAAAC | -0.103
AAATAGAC | -0.105
AGAGGTTG | -0.213
GTACCATA | -0.0621
CGTACGTC | -0.207
AGTTCGCG | -0.00572
ATAAAGCG | 0.236
CCGTCCGC | 0.292
GATGAGAA | -0.244

From the supplement of paper PMC3334620
